Assay results reported in US5661001, “High molecular weight desulphatohirudin” (Ciba-Geigy Corporation, dated 1997).

Target: human thrombin (human)
Assay: progress-curve kinetics of thrombin inhibition, D-Phe-pipecolyl-Arg-p-nitroanilide 100 µM, enzyme 20 pM

B1: [Cys^33 ]HV1--[Cys^33 ]HV1 dimer (other)
chain: VVYTDCTESGQNLCLCEGSNVCGQGNKCILGSCGEKNQCVTGEGTPKPQSHNDGDFEEIPEEYLQ
modifications: Cys^33 --Cys^33 intermolecular disulfide bond between the two chains; no sulphate at Tyr^63 (desulphatohirudin)
- Ki: 0.33 pM
- kon: 5.1e+07 M⁻¹ s⁻¹
